Source: the supplement of paper PMC3334620
The full ranking holds about 33,000 sequences; the median of “E-score (-0.5 to 0.5)” is about -0.036, and the highest 2% start at about 0.37. The list shows a part of the results.

target: T1, Yer064c (UniProt P40041); experiment: PBM E-score (8-mer binding enrichment) (E-score (-0.5 to 0.5)); higher = stronger / more preferred TF binding; most listed sequences are background and not binding sites; settings: protein concentration: 200 nM; construct: GST-full length
T1 sequence: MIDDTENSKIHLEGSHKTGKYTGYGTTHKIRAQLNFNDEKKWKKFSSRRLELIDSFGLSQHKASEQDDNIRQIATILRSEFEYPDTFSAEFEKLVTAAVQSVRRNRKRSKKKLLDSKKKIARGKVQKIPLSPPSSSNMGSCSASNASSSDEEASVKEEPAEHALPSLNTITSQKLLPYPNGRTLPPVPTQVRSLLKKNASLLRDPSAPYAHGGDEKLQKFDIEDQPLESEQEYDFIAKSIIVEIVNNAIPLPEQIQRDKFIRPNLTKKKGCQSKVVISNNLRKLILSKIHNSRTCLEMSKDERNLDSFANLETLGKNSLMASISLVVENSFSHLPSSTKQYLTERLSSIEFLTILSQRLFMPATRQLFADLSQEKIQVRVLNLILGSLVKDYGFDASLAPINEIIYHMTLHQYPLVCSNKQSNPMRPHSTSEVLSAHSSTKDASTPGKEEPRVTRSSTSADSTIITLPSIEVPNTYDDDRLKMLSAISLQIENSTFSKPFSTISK
In short: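 Bound GST-tagged yeast transcription factors, applied at about 100-200 nM to double-stranded universal all-10-mer Agilent arrays, were detected with fluorescent anti-GST. Scans were normalised with masliner. A modified Wilcoxon-Mann-Whitney statistic, the E-score, was assigned to each ungapped eight-base word pooled with its reverse complement by the Universal PBM Analysis Suite.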

Row | Sequence | PBM E-score
1 | AAGACGAG | -0.105
2 | ACTCGCGG | 0.163
3 | AGGGAGGC | -0.221
4 | CGATGATC | 0.155
5 | ATGTCACG | -0.123
6 | GAGGCAAA | -0.197
7 | AGCGTTGA | -0.119
8 | GACGGTGC | -0.325
9 | GTGGCCAC | -0.0356
10 | CGGTTAAA | 0.0362
11 | ACTGCATC | 0.253
12 | GAGGTTGA | 0.0123
13 | CCTAGCGA | -0.0137
14 | ATTATAAA | 0.156
15 | GACTCAGA | 0.458
16 | AATTTGAC | 0.137
17 | AAGCCCCG | -0.131
18 | TACCGAGA | 0.146
19 | CAGACCAC | -0.164
20 | TTGAGCAA | -0.0255
21 | GAGTACGC | 0.229
22 | GCAGAGAC | 0.159

Row | Sequence | PBM E-score
23 | GTACTGAC | 0.283
24 | GCGATTCC | 0.143
25 | ACATACCT | -0.14
26 | CTTACAAG | -0.138
27 | AAATTTGA | 0.114
28 | CCCCGTTA | -0.0142
29 | AGGAGGTC | -0.207
30 | CAGCCCAG | -0.326
31 | AACGCTCT | -0.203
32 | AACTACGG | -0.351
33 | CGATCTTC | -0.277
34 | AGATGGTC | -0.295
35 | TATTCCCA | 0.00714
36 | CAGAGTCA | 0.469
37 | GGCCCTAA | -0.174
38 | CGGATCCG | -0.104
39 | TATAGGGA | -0.00212
40 | AGCCGTTA | -0.011
41 | GCGGGTCA | 0.148
42 | CACCCGCG | 0.0436
43 | CGGGCAGC | -0.122
44 | GCCGCGGA | -0.216

Row | Sequence | PBM E-score
45 | CTAGTCAG | 0.418
46 | GAGACTAA | 0.413
47 | CCTAAGGA | 0.0353
48 | AGGCGACT | 0.387
49 | CCCTATGC | -0.215
50 | ACTTCGGA | 0.0392
51 | AGAAAGCG | -0.082
52 | CCGCCCCA | -0.155
53 | AGTGTCTA | 0.154
54 | CGTAATCA | 0.42
55 | ACTCCCCA | 0.207
56 | GTGGCAAC | -0.295
57 | ATGGGTAA | 0.275
58 | CTTACTCC | 0.128
59 | CAACACCG | -0.0689
60 | CTATAGTC | 0.37
61 | ATTCCTCG | -0.0413
62 | AACCGTAT | -0.193
63 | ACTTACAA | 0.155
64 | AAGAGTAA | 0.151
65 | CAAACGGC | -0.147
66 | CCGGCATC | -0.251

Row | Sequence | PBM E-score
67 | AAGCTGAC | 0.176
68 | ATTGAAGG | 0.114
69 | CCTGTGAC | 0.144
70 | AGCGTAGC | -0.0386
71 | GAGATTGC | -0.145
72 | GCAGAGTA | -0.0539
73 | CCTTCGTC | -0.0151
74 | CTCCGCCC | -0.221
75 | GAGTATTA | 0.175
76 | AATAGCGG | -0.18
77 | ACCGCAGT | 0.0526
78 | GAGCCCGA | 0.1
79 | ACCGACCC | -0.141
80 | AACCACTG | 0.0676
81 | AAAAGGAC | 0.036
82 | CCGAACCA | -0.222
83 | TCGGAGCA | -0.222
84 | AAATGCCG | -0.169
85 | AATGATTC | 0.464
86 | CCCTCTAC | -0.149
